Experimental data: paper PMC5777823 (eLife, 2017)

Biological target: T1, CENP-LN complex (human, UniProt Q8N0S6; Q96H22)
T1 construct: CENP-L, human; CENP-N, human, 339 residues; Form used in SEC, named without GST; The methods say that eluted GST fusions were concentrated either alone or with GST-tagged 3C protease; the tag was probably cleaved for SEC; also called CENP-L:CENP-N; CENP-NL; source: Tnao38 insect cells (baculovirus, co-expressed), purified (GSH-Sepharose, Superdex 200)
Experiment: SEC; analytical SEC on Superdex 200 5/150 or Superose 6 5/150; 20 mM HEPES pH 7.5, 300 mM NaCl, 2.5% glycerol, 2 mM TCEP, 4°C; proteins mixed at 6 μM, one hour on ice; fractions by SDS-PAGE and Coomassie
Conditions: both partners purified

T1 sequence (Q8N0S6 whole entry, chain 1 of 2, the tested form may be a part): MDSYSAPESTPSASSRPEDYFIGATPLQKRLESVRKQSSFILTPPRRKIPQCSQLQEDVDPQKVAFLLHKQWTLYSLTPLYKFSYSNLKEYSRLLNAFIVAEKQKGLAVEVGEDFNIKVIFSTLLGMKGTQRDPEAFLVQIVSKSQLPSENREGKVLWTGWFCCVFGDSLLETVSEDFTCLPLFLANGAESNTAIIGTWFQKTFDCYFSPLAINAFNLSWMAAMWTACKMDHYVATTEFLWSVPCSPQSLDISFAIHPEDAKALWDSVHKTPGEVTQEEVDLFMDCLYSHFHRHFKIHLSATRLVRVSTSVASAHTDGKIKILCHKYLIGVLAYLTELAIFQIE
T1 sequence (Q96H22 whole entry, chain 2 of 2, further chain, the tested form may be a part): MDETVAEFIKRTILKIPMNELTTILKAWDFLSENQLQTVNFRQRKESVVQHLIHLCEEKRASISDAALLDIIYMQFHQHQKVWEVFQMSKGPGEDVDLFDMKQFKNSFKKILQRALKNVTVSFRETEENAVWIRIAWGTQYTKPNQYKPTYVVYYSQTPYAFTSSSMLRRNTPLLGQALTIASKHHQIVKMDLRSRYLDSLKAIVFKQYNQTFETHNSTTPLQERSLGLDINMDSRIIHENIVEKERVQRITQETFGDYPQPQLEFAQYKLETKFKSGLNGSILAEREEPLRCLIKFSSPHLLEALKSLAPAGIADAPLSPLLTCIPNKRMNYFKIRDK

B1: CENP-C^[…] (domain or fragment)
chain: not shown
notes: pGEX-6P-2rbs; named without GST in the assays; source: bacteria, purified as described (Klare et al., 2015)
B1: binds.
